# “And” between values parts separate entries of the source, which are not always exact repeats. Identical values can stand only once. In all, about 2,900 compounds were measured (“NF-kB SEAP reporter activity, fold change vs agonist alone”: median about 0.99, highest 2% from about 2.6 on). This is one part of the list.
# Experiments:
# RAW-Dual [1] = assay: NF-kB SEAP reporter activity, fold change vs agonist alone; cytotoxicity flag (confluency mask): not cytotoxic; higher = enhanced NF-kB activity
# In short: (§1)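 RAW-Dual macrophages (50,000 cells/well in DMEM, 384-well plates) received 50 nL of library stock by pin tool, then a PRR agonist 1 h later, and were kept at 37 °C, 5% CO2. After 20 hours, supernatant was read for IRF by QuantiLuc luminescence and for NF-κB by QuantiBlue absorbance at 620 nm. Reporter activity is fold change over agonist-alone wells. Cytotoxic wells had IncuCyte confluency below 70% of agonist controls in both mask sets.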
# RAW-Dual [2] = assay: NF-kB SEAP reporter activity, fold change vs agonist alone; higher = enhanced NF-kB activity
# In short: as §1
# RAW-Dual [3] = assay: NF-kB SEAP reporter activity, fold change vs agonist alone; cytotoxicity flag (confluency mask): cytotoxic (confluency <70% of control); higher = enhanced NF-kB activity
# In short: as §1
# [4] = agonist: ODN 1826 (TLR9) 0.5 ug/mL
# [5] = agonist: Pam2CSK4 (TLR2/6) 0.1 ug/mL
# [6] = agonist: Pam3CSK4 (TLR2/1) 0.1 ug/mL
# [7] = library stock concentration (final ~1000-fold dilution): 10 mM, cytotoxicity flag (confluency mask): not cytotoxic, agonist: Imiquimod (TLR7) […]
# [8] = library stock concentration (final ~1000-fold dilution): 10 mM, cytotoxicity flag (confluency mask): not cytotoxic, agonist: MPLA (TLR4) […]
# [9] = library stock concentration (final ~1000-fold dilution): 10 mM, cytotoxicity flag (confluency mask): cytotoxic (confluency <70% of control), agonist: Imiquimod (TLR7) […]
# [10] = library stock concentration (final ~1000-fold dilution): 10 mM, cytotoxicity flag (confluency mask): cytotoxic (confluency <70% of control), agonist: MPLA (TLR4) […]
smiles,measurement,setting,value
COC1CC2CCC(C)C(O)(O2)C(=O)C(=O)N2CCCCC2C(=O)OC(C(C)CC2CCC(n3cnnn3)C(OC)C2)CC(=O)C(C)C=C(C)C(O)C(OC)C(=O)C(C)CC(C)C=CC=CC=C1C (stereo not given) (library stock concentration (final ~1000-fold dilution): 10 mM),NF-kB SEAP reporter activity,RAW-Dual [1]; agonist: LPS (TLR4) 0.1 ug/mL,0.705
same,NF-kB SEAP reporter activity,RAW-Dual [1]; [4],0.901
same,NF-kB SEAP reporter activity,RAW-Dual [1]; [5],0.487
same,NF-kB SEAP reporter activity,RAW-Dual [1]; [6],0.539
COC1CC2CCC(C)C(O)(O2)C(=O)C(=O)N2CCCCC2C(=O)OC(C(C)CC2CCC(n3cnnn3)C(OC)C2)CC(=O)C(C)C=C(C)C(O)C(OC)C(=O)C(C)CC(C)C=CC=CC=C1C (stereo not given),NF-kB SEAP reporter activity,RAW-Dual [2]; [7],1.63
same,NF-kB SEAP reporter activity,RAW-Dual [2]; [8],0.942
CC(C)c1ccc2oc3nc(N)c(C(=O)O)cc3c(=O)c2c1 (library stock concentration (final ~1000-fold dilution): 10 mM),NF-kB SEAP reporter activity,RAW-Dual [1]; agonist: LPS (TLR4) 0.1 ug/mL,0.922 and 0.879
same,NF-kB SEAP reporter activity,RAW-Dual [1]; [4],1.21 and 0.977
same,NF-kB SEAP reporter activity,RAW-Dual [1]; [5],1.02 and 1.01
same,NF-kB SEAP reporter activity,RAW-Dual [1]; [6],1.24 and 0.93
CC1CN(CC(Cc2ccccc2)C(=O)NCC(=O)O)CCC1(C)c1cccc(O)c1 (stereo not given) (library stock concentration (final ~1000-fold dilution): 10 mM),NF-kB SEAP reporter activity,RAW-Dual [1]; agonist: LPS (TLR4) 0.1 ug/mL,1.51
same,NF-kB SEAP reporter activity,RAW-Dual [1]; [4],1.01
same,NF-kB SEAP reporter activity,RAW-Dual [1]; [5],0.937
same,NF-kB SEAP reporter activity,RAW-Dual [1]; [6],0.609
CC1CN(CC(Cc2ccccc2)C(=O)NCC(=O)O)CCC1(C)c1cccc(O)c1 (stereo not given),NF-kB SEAP reporter activity,RAW-Dual [2]; [7],1.03
same,NF-kB SEAP reporter activity,RAW-Dual [2]; [8],1.01
C=C1CCC(O)CC1=CC=C1CCCC2(C)C1CCC2C(C)CCCC(C)C (stereo not given),NF-kB SEAP reporter activity,"RAW-Dual [2]; library stock concentration (final ~1000-fold dilution): 1 mM, cytotoxicity flag (confluency mask): not cytotoxic, agonist: Imiquimod (TLR7) […]",1.17
same,NF-kB SEAP reporter activity,"RAW-Dual [2]; library stock concentration (final ~1000-fold dilution): 1 mM, cytotoxicity flag (confluency mask): not cytotoxic, agonist: MPLA (TLR4) […]",0.651
C=C1CCC(O)CC1=CC=C1CCCC2(C)C1CCC2C(C)CCCC(C)C (stereo not given) (library stock concentration (final ~1000-fold dilution): 1 mM),NF-kB SEAP reporter activity,RAW-Dual [1]; agonist: LPS (TLR4) 0.1 ug/mL,0.593
same,NF-kB SEAP reporter activity,RAW-Dual [1]; [4],1.12
same,NF-kB SEAP reporter activity,RAW-Dual [1]; [5],1.12
same,NF-kB SEAP reporter activity,RAW-Dual [1]; [6],1.27
Cc1cn(C2C=CC(CO)O2)c(=O)[nH]c1=O (stereo not given) (library stock concentration (final ~1000-fold dilution): 10 mM),NF-kB SEAP reporter activity,RAW-Dual [1]; agonist: LPS (TLR4) 0.1 ug/mL,1.04
same,NF-kB SEAP reporter activity,RAW-Dual [1]; [4],1.05
same,NF-kB SEAP reporter activity,RAW-Dual [1]; [5],1
same,NF-kB SEAP reporter activity,RAW-Dual [1]; [6],1.11
Cc1cn(C2C=CC(CO)O2)c(=O)[nH]c1=O (stereo not given),NF-kB SEAP reporter activity,RAW-Dual [2]; [7],0.97
same,NF-kB SEAP reporter activity,RAW-Dual [2]; [8],1.06
Br.CCCc1cc(-c2nc(-c3ccc(C)cc3)cs2)ccn1,NF-kB SEAP reporter activity,RAW-Dual [2]; [9],1.1
same,NF-kB SEAP reporter activity,RAW-Dual [2]; [10],1.37
Br.CCCc1cc(-c2nc(-c3ccc(C)cc3)cs2)ccn1 (library stock concentration (final ~1000-fold dilution): 10 mM),NF-kB SEAP reporter activity,RAW-Dual [3]; agonist: LPS (TLR4) 0.1 ug/mL,1.54
same,NF-kB SEAP reporter activity,RAW-Dual [3]; [4],1.04
same,NF-kB SEAP reporter activity,RAW-Dual [3]; [5],1.07
same,NF-kB SEAP reporter activity,RAW-Dual [3]; [6],0.895
CC1CC(OC(=O)C(O)c2ccccc2)CC(C)(C)C1 (stereo not given) (library stock concentration (final ~1000-fold dilution): 10 mM),NF-kB SEAP reporter activity,RAW-Dual [3]; agonist: LPS (TLR4) 0.1 ug/mL,0.979
same,NF-kB SEAP reporter activity,RAW-Dual [3]; [4],1.09
same,NF-kB SEAP reporter activity,RAW-Dual [3]; [5],1.18
same,NF-kB SEAP reporter activity,RAW-Dual [3]; [6],1.17
CC1CC(OC(=O)C(O)c2ccccc2)CC(C)(C)C1 (stereo not given),NF-kB SEAP reporter activity,RAW-Dual [2]; [9],1.29
same,NF-kB SEAP reporter activity,RAW-Dual [2]; [10],1.2
COc1ccc(CNc2nc(N3CCCC3CO)ncc2C(=O)NCc2ncccn2)cc1Cl (stereo not given),NF-kB SEAP reporter activity,RAW-Dual [2]; [7],1.16
same,NF-kB SEAP reporter activity,RAW-Dual [2]; [8],1.39
COc1ccc(CNc2nc(N3CCCC3CO)ncc2C(=O)NCc2ncccn2)cc1Cl (stereo not given) (library stock concentration (final ~1000-fold dilution): 10 mM),NF-kB SEAP reporter activity,RAW-Dual [1]; agonist: LPS (TLR4) 0.1 ug/mL,1.73
same,NF-kB SEAP reporter activity,RAW-Dual [1]; [4],1.39
same,NF-kB SEAP reporter activity,RAW-Dual [1]; [5],1.33
same,NF-kB SEAP reporter activity,RAW-Dual [1]; [6],1.36
O=C(O)c1cccnc1Nc1cccc(C(F)(F)F)c1,NF-kB SEAP reporter activity,RAW-Dual [2]; [7],0.957
same,NF-kB SEAP reporter activity,RAW-Dual [2]; [8],0.922
O=C(O)c1cccnc1Nc1cccc(C(F)(F)F)c1 (library stock concentration (final ~1000-fold dilution): 10 mM),NF-kB SEAP reporter activity,RAW-Dual [1]; agonist: LPS (TLR4) 0.1 ug/mL,0.75
same,NF-kB SEAP reporter activity,RAW-Dual [1]; [4],0.783
same,NF-kB SEAP reporter activity,RAW-Dual [1]; [5],0.895
same,NF-kB SEAP reporter activity,RAW-Dual [1]; [6],0.935
O=c1ccc2ccc(O)cc2o1,NF-kB SEAP reporter activity,RAW-Dual [2]; [7],1.12
same,NF-kB SEAP reporter activity,RAW-Dual [2]; [8],1.05
O=c1ccc2ccc(O)cc2o1 (library stock concentration (final ~1000-fold dilution): 10 mM),NF-kB SEAP reporter activity,RAW-Dual [1]; agonist: LPS (TLR4) 0.1 ug/mL,1.06
same,NF-kB SEAP reporter activity,RAW-Dual [1]; [4],1.04
same,NF-kB SEAP reporter activity,RAW-Dual [1]; [5],0.924
same,NF-kB SEAP reporter activity,RAW-Dual [1]; [6],1.18
O=c1ccc2ccc(OCCCCN3CCN(c4cccc5sccc45)CC3)cc2[nH]1,NF-kB SEAP reporter activity,RAW-Dual [2]; [8],1.06
O=c1ccc2ccc(OCCCCN3CCN(c4cccc5sccc45)CC3)cc2[nH]1 (library stock concentration (final ~1000-fold dilution): 10 mM),NF-kB SEAP reporter activity,RAW-Dual [1]; agonist: LPS (TLR4) 0.1 ug/mL,1.94
same,NF-kB SEAP reporter activity,RAW-Dual [1]; [4],1.02
same,NF-kB SEAP reporter activity,RAW-Dual [1]; [5],1.65
same,NF-kB SEAP reporter activity,RAW-Dual [1]; [6],1.11
C[N+](C)(C)CCCCCC[N+](C)(C)C,NF-kB SEAP reporter activity,"RAW-Dual [2]; library stock concentration (final ~1000-fold dilution): 10 mM water, cytotoxicity flag (confluency mask): not cytotoxic, agonist: Imiquimod (TLR7) […]",0.906
same,NF-kB SEAP reporter activity,"RAW-Dual [2]; library stock concentration (final ~1000-fold dilution): 10 mM water, cytotoxicity flag (confluency mask): not cytotoxic, agonist: MPLA (TLR4) […]",1.02
C[N+](C)(C)CCCCCC[N+](C)(C)C (library stock concentration (final ~1000-fold dilution): 10 mM water),NF-kB SEAP reporter activity,RAW-Dual [1]; agonist: LPS (TLR4) 0.1 ug/mL,1.08
same,NF-kB SEAP reporter activity,RAW-Dual [1]; [4],1.14
same,NF-kB SEAP reporter activity,RAW-Dual [1]; [5],1.24
same,NF-kB SEAP reporter activity,RAW-Dual [1]; [6],1
Cc1ccc(NC(=O)Nc2cc(-c3ccccc3-c3nnn[nH]3)ccc2N(CC(C)C)CC(C)C)cc1 (library stock concentration (final ~1000-fold dilution): 10 mM),NF-kB SEAP reporter activity,RAW-Dual [3]; agonist: LPS (TLR4) 0.1 ug/mL,1.16
same,NF-kB SEAP reporter activity,RAW-Dual [3]; [4],0.54
same,NF-kB SEAP reporter activity,RAW-Dual [3]; [5],0.207
same,NF-kB SEAP reporter activity,RAW-Dual [3]; [6],0.333
Cc1ccc(NC(=O)Nc2cc(-c3ccccc3-c3nnn[nH]3)ccc2N(CC(C)C)CC(C)C)cc1,NF-kB SEAP reporter activity,RAW-Dual [2]; [9],0.81
same,NF-kB SEAP reporter activity,RAW-Dual [2]; [10],1.25
Cn1cc(-c2ccc3ncc(Cc4ccc5ncccc5c4)n3n2)cn1,NF-kB SEAP reporter activity,RAW-Dual [2]; [7],1.37
same,NF-kB SEAP reporter activity,RAW-Dual [2]; [8],1.23
Cn1cc(-c2ccc3ncc(Cc4ccc5ncccc5c4)n3n2)cn1 (library stock concentration (final ~1000-fold dilution): 10 mM),NF-kB SEAP reporter activity,RAW-Dual [1]; agonist: LPS (TLR4) 0.1 ug/mL,1.88
same,NF-kB SEAP reporter activity,RAW-Dual [1]; [4],1.35
same,NF-kB SEAP reporter activity,RAW-Dual [1]; [5],1.31
same,NF-kB SEAP reporter activity,RAW-Dual [1]; [6],1.47
Cc1cc(NC(=O)Nc2ccc(N(C)C)cc2)c2cc(F)cc(F)c2n1 (library stock concentration (final ~1000-fold dilution): 10 mM),NF-kB SEAP reporter activity,RAW-Dual [1]; agonist: LPS (TLR4) 0.1 ug/mL,1.6
same,NF-kB SEAP reporter activity,RAW-Dual [1]; [4],1.17
same,NF-kB SEAP reporter activity,RAW-Dual [1]; [5],0.859
same,NF-kB SEAP reporter activity,RAW-Dual [1]; [6],1.05

# Source: the supplement of paper PMC10037445
